This note sets out measurements from paper PMC5865128 (Nature Communications, 2018).

The target of this test is naturally cleaved, untagged human BAFF, wild type (human). Kind of test: SEC; concentrated 293 T supernatants of naturally cleaved BAFF fractionated on Superdex 200 Increase; fractions blotted with anti-BAFF antibodies; oligomer seen in the fractions.

Entries with a single value are a further part of the results.

For “naturally cleaved, untagged human BAFF, wild type (ligand)”, the stoichiometry N – broadly, a count of units in the complex or per binding partner – (3-mer eluting in fractions 15–16) was 3 and the stoichiometry N (60-mer eluting in fractions 9–10) came out at 60.
